# Several values for one entry are separate records, joined by “and”; a condition that tells them apart may be missing. Equal values may be shown once. Hit rate of the full screen: of about 110,000 compounds, about 230 (0.21%) showed an effect of 50% or more. The list shows a part of the results. Where a SMILES comes first, the peptide text is derived from it.
# Target: DPAP1 (Plasmodium falciparum, UniProt Q8IIJ9)
# Assay: primary screen, percent inhibition; read by cleavage of a fluorogenic dipeptide substrate; higher = more effect of the substance
# Parameters: species or system P. falciparum D10 trophozoite lysates; single well
# 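Also: 30 min substrate incubation versus DMSO and 10 µM JCP410 controls.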
# DPAP1, sequence (Q8IIJ9 whole entry, looked up): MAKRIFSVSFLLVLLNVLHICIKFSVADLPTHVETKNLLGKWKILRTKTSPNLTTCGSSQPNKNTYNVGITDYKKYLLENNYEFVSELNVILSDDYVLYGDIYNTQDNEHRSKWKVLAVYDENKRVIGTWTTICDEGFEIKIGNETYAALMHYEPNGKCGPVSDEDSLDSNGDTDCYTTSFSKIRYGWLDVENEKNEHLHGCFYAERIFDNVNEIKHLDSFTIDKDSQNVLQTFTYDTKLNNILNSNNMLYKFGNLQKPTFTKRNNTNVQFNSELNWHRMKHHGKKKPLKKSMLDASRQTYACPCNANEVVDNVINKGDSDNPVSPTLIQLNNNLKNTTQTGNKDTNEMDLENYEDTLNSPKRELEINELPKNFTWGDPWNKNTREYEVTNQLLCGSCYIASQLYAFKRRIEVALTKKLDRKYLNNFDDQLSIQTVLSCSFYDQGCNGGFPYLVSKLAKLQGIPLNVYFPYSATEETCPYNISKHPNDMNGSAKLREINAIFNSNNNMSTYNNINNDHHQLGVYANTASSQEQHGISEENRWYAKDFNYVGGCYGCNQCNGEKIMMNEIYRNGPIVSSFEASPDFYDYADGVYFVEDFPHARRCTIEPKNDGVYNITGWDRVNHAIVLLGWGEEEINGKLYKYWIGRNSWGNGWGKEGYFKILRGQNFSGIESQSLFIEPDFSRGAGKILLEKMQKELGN
row,Compound,% Inhibition @ 10 uM
1,Cc1nn(C(=O)CCC(=O)NC(C)CCc2ccccc2)c2ccccc12 (stereo not shown),-2.88%
2,CC(=O)c1cc2c(C)c(C(=O)c3ccccc3)oc2cc1O,-4.28%
3,Oc1nc2ccccc2nc1C1=CNC2C=CC=CC12 (stereo not shown),-8.01%
4,CCCN1CCN(C(=O)c2ccc(CS(=O)c3cccc(Cl)c3)o2)CC1 (stereo not shown),-3.91%
5,O=C(O)CCC(=O)N(CCc1ccccc1)C1CC(=O)N(c2ccc(Cl)cc2)C1=O (stereo not shown),2.73%
6,COc1ccc2nc3sc(C(=O)NC(C)C)cc3cc2c1,-6.91%
7,Oc1c2c(nc3nc(-c4ccc(Cl)cc4)nn13)CCC2,-0.671%
8,O=S(=O)(c1ccc(OC(F)(F)F)cc1)N1CCN(c2nc3ccccc3s2)CC1,3.27%
9,CC1CCc2c(sc(NC(=O)c3cccs3)c2C(N)=O)C1 (stereo not shown),5.04%
10,CN(C)c1ccc(/C=C2\SC(Nc3ccc(F)cc3)=NC2=O)cc1,-3.39%
11,O=C(Nc1ccccc1C(F)(F)F)c1cccnc1,-5.81%
12,CC(C)c1ccc2oc(-c3cc(N)ccc3O)nc2c1,0.389%
13,Cc1nc(CC(=O)Nc2nnc(C)s2)cs1,-4.54%
14,CC(=O)c1c(C)n(CCOc2ccccc2F)c2ccccc12,3.36%
15,O=C(NCCCc1ccccc1)C1CCCN(S(=O)(=O)c2c[nH]cn2)C1 (stereo not shown),-13.8%
16,O=[N+]([O-])c1ccc(O)cc1CN1CCCCCC1,-1.75%
17,CCOc1cccc(/C=C2/NC(=O)N(CC(=O)Nc3cccc(C)c3)C2=O)c1O,-6.83%
18,COc1ccc(N/C=C(\C#N)C(=O)NC(=O)c2ccccc2)cc1,-1.06%
19,CCCN(CCC)CCNC(=O)c1cc2c(s1)-c1ccccc1S(=O)(=O)C2,-0.447%
20,Cc1sc2c(C)[n+](CCCS(=O)(=O)O)sc2c1C,-4.78%
21,Cn1ncc2c1ncn1nc(-c3ccncc3)nc21,3.77%
22,COc1ccc(-c2csc(Nc3ccccc3OC)n2)cc1F,2.6% and -1.56%
23,O=C(Cc1cn2ccccc2n1)c1ccc(O)cc1O,-3.92%
24,Cc1cccnc1NC1c2ccccc2C(=O)N1Cc1ccccc1 (stereo not shown),-1.08%
25,CC1CCC(NCCc2c[nH]c3ccccc23)CC1 (stereo not shown),-2.56%

row,Compound,% Inhibition @ 10 uM
1,Cc1ccc2cnn(CC(=O)NCCCN3CCCC3=O)c2c1,5.39%
2,CCSc1nc(=O)n(-c2ccccc2)c(C)c1C(C)=O,-5.51%
3,CCOc1ccc2nc(NC(=O)CSc3nc(C)c(Cc4ccc(O)cc4)[nH]3)sc2c1,1.76%
4,COc1ccc(C2Nc3cc(C)ccc3N=C3CC(C)(C)CC(O)=C32)cc1OC (stereo not shown),1.02%
5,O=C(Nc1cccnc1)c1cc(-c2ccccc2Cl)on1,0.221%
6,Cc1ccc(C(N)=O)c[n+]1Cc1ccccc1,-0.996%
7,Nc1c(-c2cccc(C(F)(F)F)c2)cnn1C(=O)c1ccc(Cl)cc1,-2.88%
8,O=C(Nc1ccc(S(=O)(=O)N2CCCCCC2)cc1)c1ccc(Br)o1,3.79%
9,CCOc1ccc(N2CC(C(=O)Nc3ccc(F)cc3)CC2=O)cc1 (stereo not shown),-0.992%
10,CCC1CCCCN1Cc1ccc(CNC(=O)CCc2nnc3ccc(N4CCOCC4)nn23)o1 (stereo not shown),6.76%
11,COc1ccc(/C=c2/sc3nc4c(C)cc(C)cc4n3c2=O)cc1OC,-0.053%
12,CCOc1ccc(N(CC(=O)Nc2cc(Cl)ccc2C)S(C)(=O)=O)cc1,7.89%
13,Cc1cccn2c(=O)c(/C=C(\C#N)C(=O)NCCCOC(C)C)c(Oc3ccccc3F)nc12,-5.1%
14,OCCNCc1ccccc1OCc1ccccc1Cl,-2.83%
15,O=C1/C(=C/c2cccnc2)N2CCC1CC2,7.57%
16,Cc1ccc(Cn2c(=O)c3ccccc3n3c(CCC(=O)NCCN4CCOCC4)nnc23)cc1,4.16%
17,CC1=C(c2ccc(C)c(C)c2)S(=O)(=O)N=C1N1CCC(C(=O)NCC(C)c2ccccc2)CC1 (stereo not shown),-4.36%
18,COc1ccc(OCC(=O)Nc2cccc(C(F)(F)F)c2)cc1,2.3%
19,Nc1nonc1C(=O)NCCNCc1c(OCc2ccc(F)cc2)ccc2ccccc12,-5.33%
20,CCOC(=O)c1c(-c2ccccc2)oc2ccc(O)c(CN3CCN(C)CC3)c12,4.35%
21,Cc1ccc(C(=O)NCc2ccco2)cc1Cl,-5.46%
22,N#CC1=C(N)OC2=C(C(=O)CCC2)C1c1ccc2ccccc2c1 (stereo not shown),-1.38%
23,COc1ccc(-c2cn3nc(N4CCCC(C(=O)Nc5cc(C)on5)C4)sc3n2)cc1 (stereo not shown),1.46%
24,Cc1cc(C)c(S(=O)(=O)NCC2CCCO2)c(C)c1 (stereo not shown),0.634%
25,O=C(O)c1sc2cc(F)ccc2c1Cl,0.986%

row,Compound,% Inhibition @ 10 uM
1,Cc1cccc(NC(=O)CN(C2CCCCC2)S(C)(=O)=O)c1,3.81%
2,CCCCN(Cc1ccccc1)C(=O)C1CCN(S(=O)(=O)c2cccc3nsnc23)CC1,1.69%
3,CC(C)C(NC(=O)C(N)CCCN=C(N)N)C(=O)O (stereo not drawn) (H-Arg-Val-OH; configuration not given here),4.65%
4,Cc1ccc(NC(=O)CN2C(=O)C3C4CCC(C4)C3C2=O)cc1C (stereo not shown),3.5%
5,O=C(NCc1ccco1)/C(=C/c1ccccc1)NC(=O)c1ccco1,20%
6,Cc1cccc2c(CC(NC(=O)c3ccc(-c4ccccc4Cl)cc3)C(=O)NCC#N)c[nH]c12 (stereo not shown),-5.2%
7,COc1ccccc1CNc1nc(SC)ncc1CO,-5.13%
8,CCN1C(=N)N(c2nc(N(C)C)nc(N(C)C)n2)CC1=O,-4.8%
9,COc1ccccc1NC(=O)c1ccccc1Cl,3.54%
10,C=CCSC1=NC2(CC(c3ccccc3)c3ccc(O)c(O)c3O2)CC(C)(C)N1 (stereo not shown),-1.24%
11,C=CCSc1nc2ccccc2c(=O)n1Cc1ccccc1,-10.2%
12,CC(C)c1ccc(C(=O)Nc2ccc(NC(=O)c3cccs3)cc2)cc1,-17%
13,COc1cccc(C2c3c(-c4ccc(F)cc4)nnc(O)c3Nc3nnnn32)c1 (stereo not shown),0.401%
14,COc1cc(C(=O)N(Cc2ccc(N(C)C)cc2)C2CCS(=O)(=O)C2)cc(OC)c1OC (stereo not shown),3.74%
15,COCCCn1c(=N)c(C#N)cc2c(=O)n3cc(C)ccc3nc21,0.279%
16,CC1(C)CC(c2nc(-c3ccc(Br)cc3)cs2)CCO1 (stereo not shown),-0.216%
17,O=C(c1ncc[nH]1)c1ccccc1C(=O)N1CCOCC1,2.65%
18,COC(=O)C1C(=O)NCC1c1ccc(OC)cc1 (stereo not shown),-0.546%
19,CCc1ccc(CNC(=O)CSc2nc3nncc-3c(O)n2-c2ccccc2Cl)cc1,-0.406%
20,O=C1[C@@H]2C3CCC(O3)[C@H]2C(=O)N1CNc1ccc(Cl)c(Cl)c1,0.35%
21,CCc1ccc(CNC(=O)C2CCN(S(=O)(=O)N3CCC4(CC3)OCCO4)CC2)cc1,6.86%
22,CCN(CC)CCCNCc1ccc(OC)cc1OC,0.387%
23,CN(C(=O)c1ccccc1[N+](=O)[O-])c1ccccc1,3.47%
24,Cc1cccc(-c2c(C#N)cnc3ncnn23)c1,-4.76%
25,COCCOC(=O)c1c(C)oc2ccc(OCC(=O)c3ccccc3)cc12,0.487%

row,Compound,% Inhibition @ 10 uM
1,COc1cccc(-c2nn(C)c3sc(C(=O)N4CCC(C(N)=O)CC4)cc23)c1,-0.499%
2,N#CC1=C(N)Oc2[nH]nc(-c3ccc4c(c3)OCO4)c2C1c1ccco1 (stereo not shown),0.674%
3,Cc1cc(C)n(CC(=O)n2c3ccccc3c3ccccc32)n1,2.3%
4,CCOC(=O)c1oc2ccc(CNC(C)(C)C)c(Cl)c2c1C,4.6%
5,COc1cccc(CNc2nc3ccc(Cl)cc3nc2-n2nc(C)cc2C)c1,0.244%
6,CCOc1ccc(CCNC(=O)C2=C(C)C(=O)OC23CCN(S(=O)(=O)CC)CC3)cc1,-2.13%
7,O=C(/C=C/c1ccccc1)NCCc1ccccc1,-4.87%
8,CN(Cc1ccccc1)C(=O)CCc1nc(CN2CCN(C(=O)c3noc4c3CCCC4)CC2)no1,7.82%
9,O=C(c1ccc(F)cc1)N1CCN(Cc2ccc3c(c2)OCO3)CC1,7.49%
10,O=C(O)c1ccc(CSc2nc3n(n2)C(c2ccc(F)cc2)C2=C(O)CCCC2=N3)cc1 (stereo not shown),3.2%
11,CC1CC(=O)C2=C(C1)OC(N)=C(C#N)C2c1ccsc1 (stereo not shown),-1.38%
12,c1ccc(CC2NCCn3cccc32)cc1 (stereo not shown),-4.01%
13,CSc1cc(C)c(OCC(=O)Nc2ccc(NC(C)=O)cc2)c(C)c1,-5.24%
14,Cc1nnc2sc(NC(=O)CCc3ccccc3)nn12,-3.73%
15,CC1(C)CC(NC(=O)c2ccccc2C(=O)NC2CC(C)(C)NC(C)(C)C2)CC(C)(C)N1,1.57%
16,Cc1ccc(-c2ccc(=O)n(CCC(=O)NCc3ccc4c(c3)OCO4)n2)cc1,-3.58%
17,CCOC(=O)c1[nH]c2ccccc2c1NC(=O)c1cccc(C(F)(F)F)c1,-0.58%
18,CC1=C(C(N)=O)C(c2ccccc2Cl)n2nnnc2N1 (stereo not shown),0.0598%
19,Cc1nnc(N2CCC(C(=O)NCc3ccc(OC(C)C)cc3)CC2)c2nn(-c3ccccc3)c(C)c12,0.58%
20,COCCN1C(=O)/C(=C\c2ccc(C(C)C)cc2)C(C(=O)OC)=C1C,-3.06%
21,Cc1ccc(C(=O)N/C(=C/c2ccc(Cl)cc2)c2nc3ccccc3[nH]2)cc1,-1.37%
22,Cc1cc(C)nc(SCC(=O)NCc2ccccc2)n1,0.0719%
23,N#CC1=C(N)OC2=C(C(=O)CCC2)C1c1ccccc1F (stereo not shown),-3.26%
24,O=C(Nc1cc(Cl)cc(Cl)c1)c1ccccc1,-6.01%
25,CCCOC(=O)c1nc2ncc(Br)cn2n1,2.65%
